T1: UNK ZnF1-3 (human, UniProt Q9C0B0 31-174)
T1 sequence: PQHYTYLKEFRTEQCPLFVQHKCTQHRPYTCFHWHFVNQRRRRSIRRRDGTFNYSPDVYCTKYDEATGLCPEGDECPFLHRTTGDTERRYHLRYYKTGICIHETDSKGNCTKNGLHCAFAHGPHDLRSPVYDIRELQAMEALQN

B1: chr9:87430539:87430540:+_ENSG00000148053_ENST00000359847|hu_hu|FALSE|FALSE (ssRNA)
RNA: GGGAGUUCUACAGUCCGACGAUCAAAAUGAUUGAAUUCAGCAAGUACAUUUAUGAUCUAUCUACAUUGUUAAAACAGCACUAAAAAUAAAAAUUUUUAAAAUGAUUAUCCAUUAUUUACAGAAAAUGUGGAAAAGAUGGCUUUCAACAGAGGAUUGAGCAUCA
B2: chr2:120151847:120151848:-_ENSMUSG00000027291_ENSMUST00000028752|mus_hu|FALSE|FALSE (ssRNA)
RNA: GGGAGUUCUACAGUCCGACGAUCCUUGGAUUUGAUGGUGGGAGUGCCUUCCAUGAGCGGUGAGGUGCUUGACUGGUGAUCAGAGUCAUUCAGCUUCUUUACCAAUUGACUUCGUUUCUGUGUCAGGUAGUCAAUCAGAGCUAACAACAGAGGAUUGAGCAUCA
B3: chrX:153993181:153993182:+_ENSG00000130826_ENST00000369550|hu_hu|FALSE|FALSE (ssRNA)
RNA: GGGAGUUCUACAGUCCGACGAUCUACAUCUUCUUCUGGCAAUGACUUCCGCUCCUUUUUCUUCUUAUGUUUCUUUGGCAAAAUAAUUACUUCCGCAUCCGCCAUGUUACCCUGCACCGCGUGCGUGCCGCCCGGUCCACAGCCCAACAGAGGAUUGAGCAUCA
B4: 179090825_179090945_696_CDS_ENSG00000143322_ENST00000408940|human|control|control (ssRNA)
RNA: GGGAGUUCUACAGUCCGACGAUCAAUAUCUGUUCGCUCCAUUUCCCAUUUGUCGUGGAUGGGGGACACACCAUAGACUGUAGGCUUAUUACACUUGGGUGCUGGGUAGUGUAAUGUUGUCACCAGCCCAUCAGCCACUGUGGACAACAGAGGAUUGAGCAUCA
B5: chr2:152857951:152857952:+_ENSMUSG00000042631_ENSMUST00000037235|mus_hu|FALSE|FALSE (ssRNA)
RNA: GGGAGUUCUACAGUCCGACGAUCUUGAUUCUGCAGGUAGUAGGAGGCCGCCAGCCACAGGUCCGUGGCACCGUCGGAGAAGAACACGAGCAGCGCGCACAGCACCCAGCAGCAGUCCCGCAGCUCGUAGCGCGGCCCCGGGCCCAACAGAGGAUUGAGCAUCA
B6: chr1:152005216:152005217:-_ENSG00000163191_ENST00000271638|perfect_dup|FALSE|FALSE (ssRNA)
RNA: GGGAGUUCUACAGUCCGACGAUCAGAGGAUUAGAUUCGCUUCUGGGAAGUUUGGAUGAAAGAAUCAUGGCACGCUAUAGCUAAGCCACCAAUGAGGUUGAGAAACUCUUGGAAAUCUAGCUGCCCGUCACAGUUGAGGUCCAGCAACAGAGGAUUGAGCAUCA
B7: chr12:36742118:36742119:-_ENSMUSG00000020577_ENSMUST00000020896|mus_mus|FALSE|FALSE (ssRNA)
RNA: GGGAGUUCUACAGUCCGACGAUCACCACUGAGGGCCAGGGAAUAUGGGGAACUUCGAUUGCUUUUUUAGCAAUGGAAAGAAAAAAAAAAUGUCUGGAGAAACUUAAGAGUAAAAUUUUUAAUUCCAUCGUUGACAUAAUGUGGCAACAGAGGAUUGAGCAUCA
B8: chr5:74677807:74677808:-_ENSG00000113163_ENST00000380494|hu_mus|FALSE|FALSE (ssRNA)
RNA: GGGAGUUCUACAGUCCGACGAUCACGGACACAUCGAUUGUUCAGAGGAGCACUAUCAUGAUCCACAGAAAAAUUACAAACUAUCCAAGUUUCAGGAUCAUUUUCAGUCAAGGCUGGGAUCUUUCGAAUAGCAGAAAGAUACAGCAACAGAGGAUUGAGCAUCA
B9: chr4:140556289:140556290:+_ENSMUSG00000036622_ENSMUST00000037055|mus_mus|mus_mus_mus_hu_False|1_78 (ssRNA)
RNA: GGGAGUUCUACAGUCCGACGAUCGAUGGAGCUCACCAGGCCCCCUUUUGCCGUGCAGAACCCUGUCCGGGUCACCACUGCCAGGACGUGCGGUCCCACAUAGGCCCGGGCCUGCAAGAUGAGGGUCCCGCAGAAGAGGGUGUGCAACAGAGGAUUGAGCAUCA
B10: chrX:161375010:161375011:-_ENSMUSG00000061778_ENSMUST00000112247|mus_hu|FALSE|FALSE (ssRNA)
RNA: GGGAGUUCUACAGUCCGACGAUCCAGCUGGAGGUGGCAAACUGAAACAGAAAAGCCCAAAUUAAGACAAAGUAGCACACCAGUGUCCUUUUAAGGUUUUAUUUCCUAGGCCAAUUUUGAAGGAACUGUUAUAUCAUUCUUCAUCAACAGAGGAUUGAGCAUCA
B11: chr7:149068622:149068623:-_ENSMUSG00000025139_ENSMUST00000001950|mus_hu|mus_mus_mus_hu_False|1_108 (ssRNA)
RNA: GGGAGUUCUACAGUCCGACGAUCGUGCAGGUACUGAGUGUGGCUUGUGGUCUGUCCUGGGUUAGAGUUGUUAAUAUCACGGAACAUACCAUCUAGAACGUUCCAGUCCCGCCUGACACCUUCAUUCCCAAUGGAGAAUCUGCUCAACAGAGGAUUGAGCAUCA
B12: chr2:78753848:78753849:+_ENSMUSG00000027011_ENSMUST00000028398|mus_hu|motif|central (ssRNA)
RNA: GGGAGUUCUACAGUCCGACGAUCGUUAUCUCCUUUAGGCCCAGCACUGCAAUUAGGAGGAGGAUCAAGGGUUAUUUCAGCGGGCUCCUUCUGAAUUCUUUUAGCACUAGUGGAUAACUUAGCAGUGGUUUUGCUAGAGAGUUUCAACAGAGGAUUGAGCAUCA
B13: chr12:48362563:48362564:+_ENSG00000134291_ENST00000256686|hu_hu|hu_hu_hu_mus_False|98_98 (ssRNA)
RNA: GGGAGUUCUACAGUCCGACGAUCUCCGUCAAGCCCUUCAAGCCCCACUUGCGGGGGAAACUGUAAUCACUUUGUAUGGGGAAGGAAAAGAAACGCCAAAAACUUUCCAAAAAGCGGGGGUGGGGUGAGGCGGGAGGGGGAGGUCAACAGAGGAUUGAGCAUCA
B14: chr2:132618855:132618856:+_ENSMUSG00000027350_ENSMUST00000028826|mus_hu|motif|central (ssRNA)
RNA: GGGAGUUCUACAGUCCGACGAUCUUCAGGUUCUUCCUCUGAAGCCCUGUAGUGGGUUGAAUGGUGGUCCCUCUUUUCCCCGGAACUGGCCAUGCUGACGUUUGACUCCUCAGAUUCCUCCUGGGGGUGUCCCUUUUCCUCAGACAACAGAGGAUUGAGCAUCA

The list shows a part of the results.

For this assay, the target named is T1, UNK ZnF1-3. As to the kind of experiment: nsRBNS (natural sequence RNA bind-n-seq); RBNS binding buffer (assumed for nsRBNS): 25 mM Tris pH 7.5, 150 mM KCl, 3 mM MgCl2, 0.01% Triton X-100, 500 ug/ml BSA, 20 U/ml SUPERase-In, 4 C; UNK is unkempt and MSI1 is Musashi-1; names of the RNAs are library labels; protein concentration not given here; high values mean tight binding.
As for B1, the binding signal is 1.44 enrichment R.

Molecule B2 showed a binding signal of 0.499 enrichment R.

In turn, B3 yielded a binding signal of 0.781 enrichment R.

Regarding B4, the binding signal was 0.664 enrichment R.

Take B5: the binding signal was found to be 0.874 enrichment R.

As for B6, the binding signal turned out to be 1.57 enrichment R.

In the case of B7, the binding signal amounted to 1.14 enrichment R.

As to B8, the binding signal was found to be 1.13 enrichment R.

Molecule B9 had a binding signal of 0.38 enrichment R.

The molecule B10 came in with a binding signal of 1.63 enrichment R.

Take B11: the binding signal worked out at 0.745 enrichment R.

B12 came in with a binding signal of 1.35 enrichment R.

The molecule B13 came in with a binding signal of 2.38 enrichment R.

Molecule B14 yielded a binding signal of 0.673 enrichment R.

Values taken from publication PMC12136788.
